# Test results: paper PMC12820563, “FoxP3 forms a head-to-head dimer in vivo and stabilizes its multimerization on adjacent microsatellites”
# The list shows a part of the results.
# Target: T1, MBP-FoxP1dN (Mus musculus, UniProt P58462 326-579)
# T1 sequence: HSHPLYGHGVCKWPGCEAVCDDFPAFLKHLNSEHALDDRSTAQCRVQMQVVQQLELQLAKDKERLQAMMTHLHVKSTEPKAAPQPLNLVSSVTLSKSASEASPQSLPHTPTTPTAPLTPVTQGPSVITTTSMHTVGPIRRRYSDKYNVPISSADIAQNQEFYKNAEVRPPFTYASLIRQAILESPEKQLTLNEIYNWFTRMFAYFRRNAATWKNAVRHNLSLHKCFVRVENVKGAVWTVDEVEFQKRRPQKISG
# Assay: PD-seq (MBP pull-down with sequencing); 20 mM Tris-HCl pH 7.5, 100 mM NaCl, 1.5 mM MgCl2, 0.4 uM protein, 0.1 uM dsDNA library, 30 min, room temperature, amylose pull-down; high values mean tight binding
# Conditions: protein: recombinant; tags: His6-MBP; chain copies: 2; dsDNA, one strand shown
# In short: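 Binding is the reads-per-million enrichment of pull-down relative to input, pooled across replicates. For this, 0.4 µM His6-MBP-tagged mouse FoxP3 or FoxP1 fragment lacking the N-terminus, made in E. coli, was incubated with 0.1 µM Klenow-filled double-stranded degenerate DNA library for 30 min at room temperature in Tris pH 7.5 buffer with NaCl and MgCl2. Complexes bound to amylose resin were washed three times before proteinase K released the DNA for PCR barcoding and Illumina sequencing.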
row,Sequence,binding signal
1,GATGATTGTTCTCCCAGCTGATGAATTATGGGCGTCGAGTAAACAAATTTTCCTAATCTTTCTGTTCAAGCGCCATCTAC,0.937 RPM ratio (pull-down/input)
2,GATGATTGTTCTCCCAGCTGATGAATTAGCTCAGTCGAGTAAACAAATTTTCCTAATCTTTCTGTTCAAGCGCCATCTAC,0.833 RPM ratio (pull-down/input)
3,GATGATTGTTCTCCCAGCTGATGAATTTAAACATTCGAGTAAACAAATTTTCCTAATCTTTCTGTTCAAGCGCCATCTAC,1.12 RPM ratio (pull-down/input)
4,GATGATTGTTCTCCCAGCTGATGAATTGCCTGTGTCGAGTAAACAAATTTTCCTAATCTTTCTGTTCAAGCGCCATCTAC,0.968 RPM ratio (pull-down/input)
5,GATGATTGTTCTCCCAGCTGATGAATTCTAAACCTCGAGTAAACAAATTTTCCTAATCTTTCTGTTCAAGCGCCATCTAC,0.907 RPM ratio (pull-down/input)
6,GATGATTGTTCTCCCAGCTGATGAATTATAGTACTCGAGTAAACAAATTTTCCTAATCTTTCTGTTCAAGCGCCATCTAC,1.05 RPM ratio (pull-down/input)
7,GATGATTGTTCTCCCAGCTGATGAATTGCTATCTTCGAGTAAACAAATTTTCCTAATCTTTCTGTTCAAGCGCCATCTAC,1.1 RPM ratio (pull-down/input)
8,GATGATTGTTCTCCCAGCTGATGAATTAGTGCCGTCGAGTAAACAAATTTTCCTAATCTTTCTGTTCAAGCGCCATCTAC,0.903 RPM ratio (pull-down/input)
9,GATGATTGTTCTCCCAGCTGATGAATTGTTTGCTTCGAGTAAACAAATTTTCCTAATCTTTCTGTTCAAGCGCCATCTAC,2.2 RPM ratio (pull-down/input)
10,GATGATTGTTCTCCCAGCTGATGAATTGCTTAAATCGAGTAAACAAATTTTCCTAATCTTTCTGTTCAAGCGCCATCTAC,1.19 RPM ratio (pull-down/input)
11,GATGATTGTTCTCCCAGCTGATGAATTACCTAACTCGAGTAAACAAATTTTCCTAATCTTTCTGTTCAAGCGCCATCTAC,1.03 RPM ratio (pull-down/input)
12,GATGATTGTTCTCCCAGCTGATGAATTCGCGGGCTCGAGTAAACAAATTTTCCTAATCTTTCTGTTCAAGCGCCATCTAC,0.778 RPM ratio (pull-down/input)
13,GATGATTGTTCTCCCAGCTGATGAATTCCTCTCATCGAGTAAACAAATTTTCCTAATCTTTCTGTTCAAGCGCCATCTAC,0.861 RPM ratio (pull-down/input)
14,GATGATTGTTCTCCCAGCTGATGAATTTGTAATTTCGAGTAAACAAATTTTCCTAATCTTTCTGTTCAAGCGCCATCTAC,1.31 RPM ratio (pull-down/input)
15,GATGATTGTTCTCCCAGCTGATGAATTACATATGTCGAGTAAACAAATTTTCCTAATCTTTCTGTTCAAGCGCCATCTAC,1.18 RPM ratio (pull-down/input)
16,GATGATTGTTCTCCCAGCTGATGAATTGTCAGCATCGAGTAAACAAATTTTCCTAATCTTTCTGTTCAAGCGCCATCTAC,1.33 RPM ratio (pull-down/input)
17,GATGATTGTTCTCCCAGCTGATGAATTATCTTACTCGAGTAAACAAATTTTCCTAATCTTTCTGTTCAAGCGCCATCTAC,0.919 RPM ratio (pull-down/input)
18,GATGATTGTTCTCCCAGCTGATGAATTACGCTCCTCGAGTAAACAAATTTTCCTAATCTTTCTGTTCAAGCGCCATCTAC,0.964 RPM ratio (pull-down/input)
19,GATGATTGTTCTCCCAGCTGATGAATTGTTAACCTCGAGTAAACAAATTTTCCTAATCTTTCTGTTCAAGCGCCATCTAC,1.03 RPM ratio (pull-down/input)
20,GATGATTGTTCTCCCAGCTGATGAATTCACAATATCGAGTAAACAAATTTTCCTAATCTTTCTGTTCAAGCGCCATCTAC,1.64 RPM ratio (pull-down/input)
21,GATGATTGTTCTCCCAGCTGATGAATTTGCGTGCTCGAGTAAACAAATTTTCCTAATCTTTCTGTTCAAGCGCCATCTAC,1.05 RPM ratio (pull-down/input)

row,Sequence,binding signal
1,GATGATTGTTCTCCCAGCTGATGAATTGCATAAATCGAGTAAACAAATTTTCCTAATCTTTCTGTTCAAGCGCCATCTAC,1.39 RPM ratio (pull-down/input)
2,GATGATTGTTCTCCCAGCTGATGAATTTCGAGGGTCGAGTAAACAAATTTTCCTAATCTTTCTGTTCAAGCGCCATCTAC,0.748 RPM ratio (pull-down/input)
3,GATGATTGTTCTCCCAGCTGATGAATTCAAGGCGTCGAGTAAACAAATTTTCCTAATCTTTCTGTTCAAGCGCCATCTAC,0.993 RPM ratio (pull-down/input)
4,GATGATTGTTCTCCCAGCTGATGAATTTCATCGTTCGAGTAAACAAATTTTCCTAATCTTTCTGTTCAAGCGCCATCTAC,0.871 RPM ratio (pull-down/input)
5,GATGATTGTTCTCCCAGCTGATGAATTTTGTACTTCGAGTAAACAAATTTTCCTAATCTTTCTGTTCAAGCGCCATCTAC,0.97 RPM ratio (pull-down/input)
6,GATGATTGTTCTCCCAGCTGATGAATTGTCGTTTTCGAGTAAACAAATTTTCCTAATCTTTCTGTTCAAGCGCCATCTAC,1.34 RPM ratio (pull-down/input)
7,GATGATTGTTCTCCCAGCTGATGAATTTTGGACCTCGAGTAAACAAATTTTCCTAATCTTTCTGTTCAAGCGCCATCTAC,0.828 RPM ratio (pull-down/input)
8,GATGATTGTTCTCCCAGCTGATGAATTTCGAGACTCGAGTAAACAAATTTTCCTAATCTTTCTGTTCAAGCGCCATCTAC,0.778 RPM ratio (pull-down/input)
9,GATGATTGTTCTCCCAGCTGATGAATTTGACCTATCGAGTAAACAAATTTTCCTAATCTTTCTGTTCAAGCGCCATCTAC,0.822 RPM ratio (pull-down/input)
10,GATGATTGTTCTCCCAGCTGATGAATTGTTCTCGTCGAGTAAACAAATTTTCCTAATCTTTCTGTTCAAGCGCCATCTAC,1.18 RPM ratio (pull-down/input)
11,GATGATTGTTCTCCCAGCTGATGAATTACGTGCATCGAGTAAACAAATTTTCCTAATCTTTCTGTTCAAGCGCCATCTAC,1.4 RPM ratio (pull-down/input)
12,GATGATTGTTCTCCCAGCTGATGAATTGGCTCGTTCGAGTAAACAAATTTTCCTAATCTTTCTGTTCAAGCGCCATCTAC,0.876 RPM ratio (pull-down/input)
13,GATGATTGTTCTCCCAGCTGATGAATTGAAAGTATCGAGTAAACAAATTTTCCTAATCTTTCTGTTCAAGCGCCATCTAC,1.01 RPM ratio (pull-down/input)
14,GATGATTGTTCTCCCAGCTGATGAATTTATTCTCTCGAGTAAACAAATTTTCCTAATCTTTCTGTTCAAGCGCCATCTAC,1.15 RPM ratio (pull-down/input)
15,GATGATTGTTCTCCCAGCTGATGAATTCGCAACGTCGAGTAAACAAATTTTCCTAATCTTTCTGTTCAAGCGCCATCTAC,0.918 RPM ratio (pull-down/input)
16,GATGATTGTTCTCCCAGCTGATGAATTCCTAACATCGAGTAAACAAATTTTCCTAATCTTTCTGTTCAAGCGCCATCTAC,1.04 RPM ratio (pull-down/input)
17,GATGATTGTTCTCCCAGCTGATGAATTTTTCGATTCGAGTAAACAAATTTTCCTAATCTTTCTGTTCAAGCGCCATCTAC,0.944 RPM ratio (pull-down/input)
18,GATGATTGTTCTCCCAGCTGATGAATTCCACGAATCGAGTAAACAAATTTTCCTAATCTTTCTGTTCAAGCGCCATCTAC,0.963 RPM ratio (pull-down/input)
19,GATGATTGTTCTCCCAGCTGATGAATTCCCCATGTCGAGTAAACAAATTTTCCTAATCTTTCTGTTCAAGCGCCATCTAC,0.795 RPM ratio (pull-down/input)
20,GATGATTGTTCTCCCAGCTGATGAATTAGCTTGGTCGAGTAAACAAATTTTCCTAATCTTTCTGTTCAAGCGCCATCTAC,0.839 RPM ratio (pull-down/input)
21,GATGATTGTTCTCCCAGCTGATGAATTCGCATGGTCGAGTAAACAAATTTTCCTAATCTTTCTGTTCAAGCGCCATCTAC,0.833 RPM ratio (pull-down/input)

row,Sequence,binding signal
1,GATGATTGTTCTCCCAGCTGATGAATTACTACAGTCGAGTAAACAAATTTTCCTAATCTTTCTGTTCAAGCGCCATCTAC,1.15 RPM ratio (pull-down/input)
2,GATGATTGTTCTCCCAGCTGATGAATTATTCGGGTCGAGTAAACAAATTTTCCTAATCTTTCTGTTCAAGCGCCATCTAC,0.886 RPM ratio (pull-down/input)
3,GATGATTGTTCTCCCAGCTGATGAATTGGGATCATCGAGTAAACAAATTTTCCTAATCTTTCTGTTCAAGCGCCATCTAC,0.969 RPM ratio (pull-down/input)
4,GATGATTGTTCTCCCAGCTGATGAATTAAGATTTTCGAGTAAACAAATTTTCCTAATCTTTCTGTTCAAGCGCCATCTAC,0.908 RPM ratio (pull-down/input)
5,GATGATTGTTCTCCCAGCTGATGAATTGGCAGCCTCGAGTAAACAAATTTTCCTAATCTTTCTGTTCAAGCGCCATCTAC,0.837 RPM ratio (pull-down/input)
6,GATGATTGTTCTCCCAGCTGATGAATTTCGCAACTCGAGTAAACAAATTTTCCTAATCTTTCTGTTCAAGCGCCATCTAC,0.986 RPM ratio (pull-down/input)
7,GATGATTGTTCTCCCAGCTGATGAATTACTCTCGTCGAGTAAACAAATTTTCCTAATCTTTCTGTTCAAGCGCCATCTAC,0.927 RPM ratio (pull-down/input)
8,GATGATTGTTCTCCCAGCTGATGAATTCCTTGAGTCGAGTAAACAAATTTTCCTAATCTTTCTGTTCAAGCGCCATCTAC,0.889 RPM ratio (pull-down/input)
9,GATGATTGTTCTCCCAGCTGATGAATTGAGCCGATCGAGTAAACAAATTTTCCTAATCTTTCTGTTCAAGCGCCATCTAC,0.824 RPM ratio (pull-down/input)
10,GATGATTGTTCTCCCAGCTGATGAATTGCTGTCCTCGAGTAAACAAATTTTCCTAATCTTTCTGTTCAAGCGCCATCTAC,1.09 RPM ratio (pull-down/input)
11,GATGATTGTTCTCCCAGCTGATGAATTGACCCTGTCGAGTAAACAAATTTTCCTAATCTTTCTGTTCAAGCGCCATCTAC,0.872 RPM ratio (pull-down/input)
12,GATGATTGTTCTCCCAGCTGATGAATTGCACCTATCGAGTAAACAAATTTTCCTAATCTTTCTGTTCAAGCGCCATCTAC,1.2 RPM ratio (pull-down/input)
13,GATGATTGTTCTCCCAGCTGATGAATTGTGGACGTCGAGTAAACAAATTTTCCTAATCTTTCTGTTCAAGCGCCATCTAC,1.03 RPM ratio (pull-down/input)
14,GATGATTGTTCTCCCAGCTGATGAATTCCGAGTCTCGAGTAAACAAATTTTCCTAATCTTTCTGTTCAAGCGCCATCTAC,0.803 RPM ratio (pull-down/input)
15,GATGATTGTTCTCCCAGCTGATGAATTGGCCTCGTCGAGTAAACAAATTTTCCTAATCTTTCTGTTCAAGCGCCATCTAC,0.815 RPM ratio (pull-down/input)
16,GATGATTGTTCTCCCAGCTGATGAATTAGCAGGGTCGAGTAAACAAATTTTCCTAATCTTTCTGTTCAAGCGCCATCTAC,0.83 RPM ratio (pull-down/input)
17,GATGATTGTTCTCCCAGCTGATGAATTGCGGCTCTCGAGTAAACAAATTTTCCTAATCTTTCTGTTCAAGCGCCATCTAC,0.955 RPM ratio (pull-down/input)
18,GATGATTGTTCTCCCAGCTGATGAATTTCACCGCTCGAGTAAACAAATTTTCCTAATCTTTCTGTTCAAGCGCCATCTAC,0.814 RPM ratio (pull-down/input)
19,GATGATTGTTCTCCCAGCTGATGAATTACGCCCCTCGAGTAAACAAATTTTCCTAATCTTTCTGTTCAAGCGCCATCTAC,0.968 RPM ratio (pull-down/input)
20,GATGATTGTTCTCCCAGCTGATGAATTGCCCCGGTCGAGTAAACAAATTTTCCTAATCTTTCTGTTCAAGCGCCATCTAC,0.773 RPM ratio (pull-down/input)
21,GATGATTGTTCTCCCAGCTGATGAATTAACTAGCTCGAGTAAACAAATTTTCCTAATCTTTCTGTTCAAGCGCCATCTAC,0.859 RPM ratio (pull-down/input)
